Experimental data: PubChem BioAssay AID463173 (ICCB-Longwood Screening Facility, Harvard Medical School, 2010)
Screen size: about 52,000 compounds; about 4,300 (8.3%) were called active. Rule as the data show it: active = survival mostly below about 52% (no sharp cut-off); inactive = mostly above about 56%. The list shows a part of the results.

Tested on: DeltatarO mutant
Test: growth inhibition of S. aureus wild type versus tarO mutant, primary screen, teichoic acid synthesis inhibitors, RN4220, OD600 (AID 463173)
Settings: OD600, 18 h, hits give low values, screened at 18.75 µg/mL (by protocol)

SMILES	survival
COc1cccc(C(=O)Nc2nc(-c3nnn(-c4cccc(Cl)c4C)c3C)ns2)c1	active: -5%
COc1ccc2c(CNCc3ccco3)c(C(=O)O)n(Cc3cccc(F)c3)c2c1	inactive: 64%
COc1ccc(NC(=O)Cn2c(=O)n(-c3ccc(OC)cc3)c(=O)c3sc4ccccc4c32)cc1	inactive: 106%
Cc1ccc(C)c(Cn2c(SCC(=O)NCc3ccccc3)nc3ccccc32)c1	inactive: 73%
CCOC(=O)c1cccc(NC(=O)C2=C(C)C(=O)OC23CCCCC3)c1	inactive: 89%
CCN(CC)N=Nc1ccc(S(=O)(=O)N2CCSC2C(=O)O)cc1 (stereo unspecified)	inactive: 103%
Cn1c(NCCN)nc2c1c(=O)n(Cc1ccccc1)c(=O)n2C	inactive: 50%
Cc1cc2nc(-c3ccc(OCc4ccccc4F)cc3)cc(C(F)(F)F)n2n1	active: 45%
CCCc1nn2c(=O)cc(COC(=O)c3ccc4c(c3)OCO4)nc2s1	inactive: 82%
Cc1ccc(C)c(NC(=O)c2oc(=O)c3ccccc3c2-c2ccccc2)c1	inactive: 67%
O=C1/C(=N\O)CCc2c1no[n+]2[O-]	inactive: 80%
COc1ccccc1CCNC(=O)C1(c2cccs2)CCOCC1	inactive: 76%
CCc1cccc(NC(=O)CCn2nc(C)cc2C)c1	inactive: 80%
COc1ccc(C2CC(=O)Nc3c2c(C)nn3-c2nc(C)cc(C)n2)c(OC)c1OC (stereo unspecified)	inactive: 66%
CCC(=O)NCCc1sc2nc(-c3ccc(OC)cc3)nn2c1C	inactive: 91%
COc1ccc(CCNC(=O)c2ccc3nc(CCc4ccccc4)oc3c2)cc1OC	active: 37%
COc1ccc(NC(=O)Cn2c(=O)oc3cc(S(=O)(=O)N4CCCC4)ccc32)cc1OC	inactive: 81%
Cc1cccc(CSc2nc3ccncc3n2CC(=O)N(C)C2CCCCC2)c1	inactive: 91%
CCC(C)(C)Nc1ncccc1C(=O)O	inactive: 111%
COc1ccc(NC(=O)Cn2cnc3c(nc4n3CCCCC4)c2=O)cc1Cl	inactive: 84%
Cc1cccc(N2CCN(C(=O)Cc3c(C(=O)O)c(C)cn3C)CC2C)c1 (stereo unspecified)	inactive: 100%
CN(Cc1ccccc1)C(=O)c1ccc(CSc2nc3cccnc3n2Cc2ccccc2)cc1	inactive: 124%
COc1ccc(N2CCN(C(=O)C3CCCN(S(=O)(=O)c4ccc5c(c4)oc(=O)n5C)C3)CC2)cc1 (stereo unspecified)	inactive: 96%

SMILES	survival
COC(=O)c1cc2c(ccn2-c2ccc(F)cc2)n1CC1CCCCC1	inactive: 88%
CCOC(=O)c1ccccc1NC(=O)c1sc2nc(-c3ccc(F)cc3)cn2c1C	inactive: 67%
COc1ccc(-c2nc3ccccc3o2)cc1NC(=O)c1cc(Br)ccc1OC	active: 40%
COc1ccc(C)cc1NC(=O)NCCn1nnc2cc(S(=O)(=O)N(C)C)ccc21	inactive: 89%
Cc1nnc(NC(=O)CSc2nc3c([nH]c4ccccc43)c(=O)n2-c2cccc(Cl)c2)s1	inactive: 79%
COc1ccc(CCNC(=O)c2cnc3sc(N4CCCCCC4)nn3c2=O)cc1	inactive: 65%
Cc1ccc(C(=O)OCc2cc(=O)n3nc(CC(C)C)sc3n2)cc1	inactive: 122%
Cc1ccc(N2C(=O)CSC23C(=O)N(CC(=O)NCCc2ccccc2)c2ccccc23)cc1 (stereo unspecified)	inactive: 80%
CCC1CN(C(=O)N2CCC(C(=O)NCc3cccs3)CC2)c2ccccc2O1 (stereo unspecified)	inactive: 78%
N#CC1=C(N)Oc2n[nH]c(CSc3ccccc3)c2C1Cc1ccccc1 (stereo unspecified)	inactive: 65%
Cc1ccc(NC(=O)c2ccc(-c3ccccc3)s2)cc1	inactive: 82%
CC(=O)c1ccc(NC(=O)c2sc(-n3nc(C)c(Cc4ccc5c(c4)OCO5)c3C)nc2C)cc1	inactive: 59%
CCC1CCCCN1CCCNC(=O)c1ccc2c(c1)N(Cc1cccc(Cl)c1)C(=O)c1ccccc1S2(=O)=O (stereo unspecified)	inactive: 57%
O=C(Nc1ccc2oc(-c3ccc(Br)cc3)nc2c1)c1cc2ccccc2o1	inactive: 55%
COc1cccc(CNCc2c(C(=O)O)n(Cc3ccc(C)cc3)c3cc(C)ccc23)c1OC	inactive: 95%
COc1ccc(N2CCN(C(=O)c3noc4c3CCCCC4)CC2)cc1	inactive: 72%
O=c1oc2c(CN3CCOCC3)c(O)ccc2cc1-c1ccccc1	inactive: 89%
COc1ccc(OCC(=O)N2CCN(C(=O)c3ccc(OC)c(OC)c3)CC2)cc1	inactive: 150%
Cc1cccc(C)c1NC(=O)CCSCCc1ccccn1	inactive: 86%
COc1cn(CC(=O)Nc2ccc(C)cc2)c(CN2CCCCC2)cc1=O	inactive: 90%
O=C(CCNS(=O)(=O)c1ccc2c(c1)CCN2C(=O)C1CC1)Nc1ccc(Cl)cc1	inactive: 76%
CC(=O)N1CCc2cc(Br)cc(S(=O)(=O)CCC(=O)NCc3ccc(F)cc3)c21	inactive: 56%
COc1ccccc1CN1CCC(CNC(=O)c2cnn(-c3cccc(Cl)c3)c2C2CCN(C(=O)OC(C)(C)C)CC2)CC1	inactive: 86%
